Experimental data published in PubChem BioAssay AID652104 (National Center for Advancing Translational Sciences (NCATS), 2013).
Screen size: about 410,000 compounds; about 7,200 (1.8%) were called active. Inconclusive results, whose numbers are uncertain, are shown with a selection of clear calls. Calls come from the whole dose curve; as a rule, active = well fitted activation curve with a large enough effect; inconclusive = small, poorly fitted or top-dose-only effect, or another doubt; inactive = no such curve, though single readings can be large or run the other way. Potencies of inconclusive entries are doubtful fits and often do not repeat.

Assay: qHTS of TDP-43 Inhibitors; note: nearly all actives have a fitted effect of over 50% in size; for growth rescue (activation): % of control where 0% means no effect
Conditions: TDP-43 expressing yeast growth rescue, BacTiter-Glo, 24 h; growth rescue (activation): at 46.1 µM (top of the series) unless noted
How it was run: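 Yeast cells expressing TDP-43 under galactose induction are exposed to compounds for 24 hr at 30 deg C. BacTiter-Glo luminescence measures growth, so protective compounds score as activators.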
Potency is the fitted concentration of half-maximal effect; tags give direction and shape of the fitted curve.

Potency, inactive:
COc1cc2c(cc1OC)CN(C(=O)c1ccc(OC)c([N+](=O)[O-])c1)CC2
CCOc1ccccc1CNC(=O)c1ccc(NC(=O)N2CCSc3ncccc32)cc1
COc1ccc2c(c1)c1c(c(=O)n(-c3ccc(C)cc3)c(=O)n1CC(=O)NCc1ccc(C)cc1)n2C
COCCNC(=O)/C(C#N)=C/c1ccc(O)cc1
C=C(C)Cn1c(CCNC(=O)CCC)nc2ccccc21
NS(=O)(=O)c1ccc(CCNC(=O)Cn2c(-c3cccs3)cc3ccccc32)cc1
Cc1cc(=O)n(CC(=O)NCc2ccc(OC(C)C)cc2)c2c1c(C)nn2-c1cccc(F)c1
Cn1cc(CN2CCC(Oc3ccc(C(=O)N4CCCCC4)cc3)CC2)cn1
CCOc1cc(CN2CCN(S(=O)(=O)c3ccc(C)cc3)CC2)ccc1OC
CC(C)Cc1nn2c(=O)cc(COC(=O)c3ccc(NC(=O)CCc4ccccc4)cc3)nc2s1
COc1ccc([C@H]2N[C@]3(CCCN(CC4CCCCC4)C3=O)[C@H]3C(=O)N(Cc4ccccc4)C(=O)[C@@H]23)cc1
CCOC(=O)c1ccc(NC(=O)Cn2cc(C(=O)c3ccc(CC)cc3)c(=O)c3ccc(C)nc32)cc1
CCN(CC)C(=O)Cn1cc(SCC(=O)Nc2cc(C)on2)c2ccccc21
CC1CCN(C(=O)COC(=O)c2ccc3c(c2)C(=O)N(Cc2ccco2)C3=O)CC1
Cc1ccc(CNC(=O)CSc2ncccn2)cc1
O=C(Nc1cccc(C(F)(F)F)c1)C1Cc2c(-c3ccco3)ccnc2O1 (centres undefined)

Potency, inconclusive:
O=C1N(c2ccccc2)c2ccccc2C1(O)C(F)(F)F (centres undefined) 14.1 µM [activator, single point]
Cc1[nH]n(-c2ccccc2)c(=O)c1/C=N/NC(=O)c1ccoc1C 14.1 µM [activator, partial curve]
COC(=O)[C@H](CC(C)C)NC(=O)/C=C/[C@H]1O[C@@H](n2cc(C)c(=O)[nH]c2=O)C[C@@H]1O 2.51 µM [activator, full curve, poor fit]
COc1ccc(S(=O)(=O)Oc2ccc(C(=S)N3CCOCC3)cc2OC)cc1 8.91 µM [activator, partial curve]
CN(C)c1cccc(CNC(=O)c2ccc3nc([C@H]4C[C@H](O)[C@@H](CO)O4)[nH]c3c2)c1 1.41 µM [activator, partial curve]
CCCc1nc2cc(C)c(Br)c(C)n2c1Cc1ccccc1OC 11.2 µM [activator, partial curve]
O=C(Cc1ccccc1)NCCn1ccc2ccccc21 15.8 µM [activator, partial curve]
O=c1[nH]nc(-c2ccccc2)cc1-c1ccccc1 11.2 µM [activator, single point]
COc1ccc2c(c1)/C(=N/OC(=O)c1cccs1)CCC2 22.4 µM [activator, single point]
Cc1cccc(C(=O)Nc2ccccc2NC(=O)c2cccc(C)c2)c1 35.5 µM [activator, single point]
N#CC(C#N)=C1CCCc2sccc21 11.2 µM [activator, single point]
CCOC(=O)N1CCC(NC(=O)c2cc(COc3c(C)cccc3C)on2)CC1 10 µM [activator, partial curve]
Cc1nc(N)nc(N)c1/C=C/C(C)(C)c1ccc(Cl)cc1 4.47 µM [activator, full curve]
Nn1c(COc2ccc(Cl)cc2)nc2ccccc2c1=O 17.8 µM [activator, single point]
CC(C)Cc1nc(N2CCOCC2)c(C#N)c2c1CCC2 8.91 µM [activator, partial curve]
CN(Cc1cccc(F)c1)C(=O)c1ccc(S(=O)(=O)N2CCCCCC2)cc1 22.4 µM [activator, single point]
Cc1ccc2c(c1)N(C(=O)CCC(=O)NCc1cccc(Cl)c1)CC(C)O2 (centres undefined) 7.94 µM [activator, partial curve]
COc1ccc(-c2nnc(NC(=O)c3ccc(F)cc3)o2)cc1 15.8 µM [activator, partial curve]
COc1ccccc1C(=O)NC(C)c1cccc2ccccc12 (centres undefined) 17.8 µM [activator, single point]
CCOCCn1c(CN(Cc2ccccc2)Cc2ccccc2)nc2c1c(=O)n(C)c(=O)n2C 20 µM [activator, single point]
O=C(COC(=O)Cn1cnc2ccccc2c1=O)Nc1ccccc1Sc1ccc(Cl)cc1 31.6 µM [activator, single point]
Brc1ccc(-c2nc(-c3cccnc3)no2)o1 22.4 µM [activator, single point]
N#Cc1cnc2c(-c3ccccc3)c(-c3ccccc3)nn2c1N 35.5 µM [activator, single point]
O=C(NCC(c1ccc2c(c1)OCO2)N1CCOCC1)C(=O)Nc1ccccc1 (centres undefined) 11.2 µM [activator, partial curve]
Cc1ccc(S(=O)(=O)Oc2cccc([N+](=O)[O-])c2)cc1 12.6 µM [activator, partial curve]
CCOC(=O)c1sc(-c2ccccc2)cc1NC(=O)Nc1ccccc1 10 µM [activator, partial curve]
COC(=O)Cn1ncc(N2C3CC(CC(C)(C)C3)C2C)c(Cl)c1=O (centres undefined) 10 µM [activator, partial curve]
COc1ccccc1C(=O)Nc1ccc(C)c(S(=O)(=O)N2CCCCC2)c1 31.6 µM [activator, single point]
CC1(C(=O)Nc2cccc(C#N)c2)CCN1C(=O)c1ccccc1CCc1ccccc1 (centres undefined) 35.5 µM [activator, single point]
N#C/C(=C\c1cn(Cc2ccccc2F)c2ccccc12)C(=O)NCc1ccco1 5.01 µM [activator, partial curve, poor fit]
CC1(C(=O)NS(=O)(=O)c2cccc(OC(F)F)c2)CCN1C(=O)Cc1cccs1 (centres undefined) 6.31 µM [activator, partial curve]
Cc1cc(C(=O)COC(=O)c2ccc(CO)cc2)c(C)n1CC1COc2ccccc2O1 (centres undefined) 35.5 µM [activator, single point]
O=C(CNC(=O)c1ccccc1)Sc1ccccc1 10 µM [activator, partial curve]
O=C(c1cccs1)c1ccccc1Cc1cccs1 20 µM [activator, partial curve]
CC(CCc1ccccc1)NC(=O)Cc1ccc(Br)cc1 (centres undefined) 10 µM [activator, partial curve]
COc1ccc(F)cc1-c1cc(NC=O)c2ncc(-c3cccc(C(F)(F)F)c3)n2c1 22.4 µM [activator, single point]
O=C(C1CC2C=CC1C2)N1CCN(c2ccccc2)CC1 (centres undefined) 35.5 µM [activator, single point]
O=S(=O)(NCc1cc(-c2ccccc2Cl)no1)c1ccccc1 12.6 µM [activator, partial curve]
Cc1cccc2sc(=S)[nH]c12 14.1 µM [activator, single point]
C=CC(C)(C)c1cc2cc3ccoc3cc2oc1=O 3.55 µM [activator, full curve]
O=C(NN1C(=O)/C(=C/c2cccnc2)SC1=S)C(c1ccccc1)c1ccccc1 20 µM [activator, single point]
COc1ccc(C2CC(=O)c3cnc(NC(=O)c4cccc(OC)c4)nc3C2)cc1 (centres undefined) 17.8 µM [activator, partial curve]
CCc1cc(C(=O)NNC(=S)Nc2cccc(C)c2)cs1 11.2 µM [activator, partial curve]
CCCCN1C(=O)c2ccc(C(=O)Nc3ccccc3N3CCOCC3)cc2C1=O 0.631 µM [activator, full curve]
Oc1ccc2ccccc2c1C1Nc2cccc3cccc(c23)N1 22.4 µM [activator, single point]
Cc1cccc(OCc2nc(-c3ccccn3)n[nH]2)c1 20 µM [activator, partial curve]

Potency, active:
Cc1ccc(-c2csc3ncn(Cc4ccc(C(=O)O)cc4)c(=O)c23)cc1C 20 µM
Cc1cccc(CCNC(=O)c2cnc3c(C)cccn3c2=O)c1 28.2 µM
CCOc1ccc(Cn2c(=O)sc3ccccc32)cc1OC 12.6 µM
O=C(NC(c1cccnc1)C(F)(F)F)c1cc(COc2ccc3c(c2)CCCC3)on1 (centres undefined) 20 µM
COc1cc2c(cc1OC)CN(C1CC(=O)N(c3c(C)cccc3C)C1=O)CC2 (centres undefined) 14.1 µM
c1ccc(-c2cnc(CSc3ncnc4sccc34)o2)cc1 22.4 µM

Growth rescue (activation), inconclusive:
COc1ccc(S(=O)(=O)Cc2ccc(C(=O)N3CCOCC3)o2)cc1 24.3% [activator]
